According to PubChem BioAssay AID504332 (National Center for Advancing Translational Sciences (NCATS), 2011):
About 31,000 (8.9%) of roughly 350,000 compounds were called active. Inconclusive means that the source gave no clear call. Such entries were picked first, then a sample of the others. Calls follow the shape of the dose curve; as a rule, active = well fitted inhibition curve with a large enough effect; inconclusive = small, poorly fitted or top-dose-only effect; inactive = no such curve, though single readings can be large or run the other way. Where the call is inconclusive, the potency comes from a doubtful curve fit. Some structures have more than one record in an assay (separate samples or runs), and their calls can disagree.

molecular target: Histone-lysine N-methyltransferase EHMT2 (Homo sapiens) (UniProt Q96KQ7); assay: qHTS Assay for Inhibitors of Histone Lysine Methyltransferase G9a; conditions: G9a H3K9 monomethylation, AlphaScreen, 2 h; activity, negative = inhibition: at 59 µM (top of the series) unless noted; also: nearly all actives have a fitted effect of over 75% in size
UniProt Q96KQ7, sequence (Q96KQ7 whole entry, looked up): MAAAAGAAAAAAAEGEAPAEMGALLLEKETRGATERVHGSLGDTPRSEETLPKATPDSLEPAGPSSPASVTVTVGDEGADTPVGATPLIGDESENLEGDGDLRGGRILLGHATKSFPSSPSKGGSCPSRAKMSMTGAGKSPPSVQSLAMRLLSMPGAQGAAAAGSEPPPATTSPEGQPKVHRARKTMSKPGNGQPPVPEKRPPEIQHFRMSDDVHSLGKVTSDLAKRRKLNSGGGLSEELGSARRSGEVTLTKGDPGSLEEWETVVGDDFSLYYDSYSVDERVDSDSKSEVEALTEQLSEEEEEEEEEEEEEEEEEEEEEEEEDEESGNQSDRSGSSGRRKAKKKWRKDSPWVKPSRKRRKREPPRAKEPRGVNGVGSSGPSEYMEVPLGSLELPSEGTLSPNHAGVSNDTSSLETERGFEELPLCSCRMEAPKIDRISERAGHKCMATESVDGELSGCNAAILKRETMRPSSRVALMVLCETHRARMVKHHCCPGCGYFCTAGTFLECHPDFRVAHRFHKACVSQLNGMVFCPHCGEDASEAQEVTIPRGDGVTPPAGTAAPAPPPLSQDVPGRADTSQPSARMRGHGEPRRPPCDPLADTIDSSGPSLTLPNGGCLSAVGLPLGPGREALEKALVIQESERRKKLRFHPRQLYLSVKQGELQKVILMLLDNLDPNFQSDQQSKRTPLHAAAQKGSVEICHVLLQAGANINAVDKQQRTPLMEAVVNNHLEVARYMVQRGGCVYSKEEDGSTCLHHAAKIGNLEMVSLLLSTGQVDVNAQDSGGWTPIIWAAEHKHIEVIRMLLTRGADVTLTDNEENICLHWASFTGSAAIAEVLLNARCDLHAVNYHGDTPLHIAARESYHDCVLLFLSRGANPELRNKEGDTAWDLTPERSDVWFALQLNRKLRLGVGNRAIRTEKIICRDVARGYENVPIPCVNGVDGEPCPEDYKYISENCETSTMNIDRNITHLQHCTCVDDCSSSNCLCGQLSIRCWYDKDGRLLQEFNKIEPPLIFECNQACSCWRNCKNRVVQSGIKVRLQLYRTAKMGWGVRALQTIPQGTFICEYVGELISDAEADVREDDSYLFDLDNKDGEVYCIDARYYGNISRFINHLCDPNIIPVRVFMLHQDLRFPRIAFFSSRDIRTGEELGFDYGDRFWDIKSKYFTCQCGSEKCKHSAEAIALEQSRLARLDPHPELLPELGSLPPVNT
Outline: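 G9a (20 nM) was preincubated 15 min with compound, then reacted 2 h at room temperature with 500 nM biotin-H3K9 peptide and 20 µM SAM. Monomethyl-H3K9 detected by AlphaScreen using anti-H3K9me1 antibody.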
% is scaled to controls: 0 for no effect and ±100 for the full control effect; potency is read from the fitted curve at half-maximal effect; tags tell the direction and shape of the fitted curve.

| SMILES | Potency | activity, negative = inhibition |
| --- | --- | --- |
| COC(=O)c1cccc(NC(=O)CN2CCOCC2)c1 | inconclusive: 39.8 µM [inhibitor, single point] |  |
| NS(=O)(=O)c1ccc(NC(=S)NC2CCCCCC2)cc1 | inconclusive: 39.8 µM [inhibitor, single point] |  |
| CC(C)Cn1c(N)c(C(=O)COC(=O)C2=COCCO2)c(=O)n(C)c1=O | inconclusive: 0.316 µM [inhibitor, full curve, poor fit] |  |
| Cc1ccc(O)c(Nc2c3ccccc3nc3ccccc23)c1 | inconclusive: 39.8 µM [inhibitor, partial curve, poor fit] |  |
| COc1ccc(/C=N/NC(N)=S)cc1 | inconclusive: 89.1 µM [inhibitor, single point] |  |
| CC(C)c1ccc2oc(-c3cc(NC(=O)c4cccnc4)ccc3Cl)nc2c1 | inconclusive: 1 µM [inhibitor, full curve, poor fit] |  |
| Cn1c(SCC(=O)c2ccccc2F)nnc1C1CC1 | inconclusive: 50.1 µM [inhibitor, partial curve] |  |
| O=C(C1=C[C@H](c2ccccc2)C[C@H](OCc2ccc(CO)cc2)O1)N1CCN(Cc2ccccc2)CC1 |  | inconclusive: -94.5% [inhibitor] |
| COc1ccc(-c2cccc(C(=O)Nc3ccccc3C)c2)cc1 | inconclusive: 25.1 µM [inhibitor, single point] |  |
| Cc1ccc(N2CC(C(=O)NCc3nnnn3-c3ccc(C)c(C)c3)CC2=O)cc1C (stereo not given) |  | inactive: 4.19% |
| Fc1ccc(C(c2ccc(F)cc2)N2CCN(C/C=C/c3ccccc3)CC2)cc1 | active: 21.2 µM |  |
| COc1ccc(NC(=O)NCCN2CCc3ccccc3C2)cc1 | inconclusive: 22.4 µM [inhibitor, single point] |  |
| O=[N+]([O-])c1ccccc1/C=N/N1CCN(Cc2ccccc2)CC1 | active: 39.8 µM |  |
| CCOc1ccc(-c2cc(C(=O)N3CCN(c4cccc(C)c4)C(C)C3)c3ccccc3n2)cc1 (stereo not given) | inconclusive: 4.47 µM [inhibitor, partial curve, poor fit] |  |
| O=C(CCN1CCCCO1)N1CCCC(Nc2ccc(F)cc2)C1 (stereo not given) |  | inactive: -20.2% [at 102 µM] |
| Cc1ccc(-c2nnc(Nc3ccc(S(N)(=O)=O)cc3)c3ccccc23)cc1S(=O)(=O)N1CCOCC1 |  | inactive: -50.4% |
| CCN1CCCC(Sc2nc3c([nH]2)c(=S)n(C)c(=O)n3C)C1 (stereo not given) | inconclusive: 63.1 µM [inhibitor, single point] |  |
| O=C(CCCn1nnc2ccccc2c1=O)N[C@H](C(=O)O)c1ccccc1 |  | inactive: 3.14% [at 102 µM] |
| CCn1c(SC(C)C(=O)Nc2ccc(N3CCOCC3)cc2)nnc1-c1ccco1 (stereo not given) | inconclusive: 89.1 µM [inhibitor, single point] |  |
| Cc1ccc(/C=N/NC(=O)CSc2nc3ccccc3s2)o1 | inconclusive: 39.8 µM [inhibitor, single point] |  |
| O=C(Nc1ncc([N+](=O)[O-])s1)c1cccc([N+](=O)[O-])c1 | inconclusive: 50.1 µM [inhibitor, partial curve, poor fit] |  |
| O=C(c1ccc(Br)o1)N1CCN(c2ccccc2F)CC1 | inconclusive: 39.8 µM [inhibitor, partial curve, poor fit] |  |
| COc1ccccc1CNC(=O)c1ccc(-c2ccccc2)cc1 | active: 44.7 µM |  |

| SMILES | Potency | activity, negative = inhibition |
| --- | --- | --- |
| O=C(c1ccc(F)cc1)N1CCOCC1 |  | inactive: 21.3% [at 102 µM] |
| CCCC(=O)Nc1cc(-c2nc3cccnc3s2)ccc1C | inconclusive: 12.6 µM [inhibitor, partial curve, poor fit] |  |
| Cc1ccc(NC(=O)NCC2CCN(Cc3cccc(Cl)c3)CC2)cc1Cl | inconclusive: 89.1 µM [inhibitor, partial curve, poor fit] |  |
| c1cc2c(cnc3cscc32)s1 | active: 14.1 µM |  |
| CCn1c(-c2ccc3ncccc3c2)n[nH]c1=S | active: 10 µM |  |
| Cc1ccc(-n2cc(CNCCN3CCOC3=O)c(-c3cccc(C)c3)n2)cc1 | active: 35.5 µM |  |
| CC(NC(=O)c1cccc(NC(=O)c2nsc3ccccc23)c1)c1ccccc1 (stereo not given) |  | inactive: -3.33% |
| COc1ccc(CN(C(=O)c2snc(C(N)=O)c2N)C(C(=O)NC2CCCC2)c2ccc(OC)c(OC)c2)cc1 (stereo not given) |  | inactive: -11.3% [at 102 µM] |
| Cc1nnc(SCC(=O)Nc2ccc(N3CCOCC3)cc2)o1 | active: 50.1 µM |  |
| COc1ccc(-c2nc3ccc(C)cn3c2NCc2ccccc2)cc1SC1CCCCC1 |  | inactive: 2.22% [at 2.33 µM] |
| CCOc1ccc(NS(=O)(=O)c2ccc3[nH]cc(C(=O)NC4CCCC4)c(=O)c3c2)cc1 | inconclusive: 17.8 µM [inhibitor, partial curve, poor fit] |  |
| CCn1c(C(C)C)n[nH]c1=S | inconclusive: 0.316 µM [inhibitor, partial curve, poor fit] |  |
| Fc1ccc(-c2csc(-c3ccccn3)n2)cc1F | inconclusive: 89.1 µM [inhibitor, single point] |  |
| COCc1ccc(C(=O)N2CCCC(C(=O)c3ccc(Cl)cc3C)C2)o1 (stereo not given) |  | inactive: -8.88% [at 0.501 µM] |
| O=C(c1ccco1)N1CCN(c2ccnc3cc(Cl)ccc23)CC1 | inconclusive: 39.8 µM [inhibitor, partial curve] |  |
| Cc1noc(Cn2c(=O)c3ccccc3n(CC(=O)Nc3ccc(Cl)cc3)c2=O)n1 | inconclusive: 6.31 µM [inhibitor, single point] |  |
| O=C(O)CC1=C(Nc2ccccc2)C(=O)N(c2ccccc2)C1c1ccc(Br)cc1 (stereo not given) | inconclusive: 31.6 µM [inhibitor, full curve] |  |
| O=C(Cc1coc2ccc3ccccc3c12)N1CCc2ccccc21 | inconclusive: 89.1 µM [inhibitor, single point] |  |
| CC(C)(C)c1cc(/C=C2\NC(=O)NC2=O)cc(C(C)(C)C)c1O | inconclusive: 89.1 µM [inhibitor, single point] |  |
| COc1cc(CN2CCC(n3nccc3NC(=O)CCCc3ccccc3)CC2)ccc1F |  | inactive: -0.372% [at 102 µM] |
| O=C(NN=C1c2ccccc2-c2ccccc21)c1cccc(Br)c1 | inconclusive: 70.8 µM [inhibitor, single point] |  |
| O=C1C=CC(=O)N1c1ccc(OC(F)F)cc1 | active: 1.41 µM |  |
